Reference: ChEMBL document CHEMBL4888484, “Replenishing the malaria drug discovery pipeline: Screening and hit evaluation of the MMV Hit Generation Library 1 (HGL1) against asexual blood stage Plasmodium falciparum ,using a nano luciferase reporter read-out” (2022)
Out of some 150,000 compounds screened, about 540 (0.36%) showed an effect of 50% or more. This is one part of the list.

Tested on: Plasmodium falciparum
Test: Primary screen in NF54 nanoGlo assay, in single point, at 2uM, 72h; a lower Z score goes with more inhibition
Assay type: functional, Erythrocyte
Conditions: timepoint 72 hour

Row | SMILES | % Inhibition | Z score
1 | Cc1cc(C)nc(N[C@@H](C)c2cn(C)nc2C)n1 | -6% | 0.94
2 | CN1C(=O)N([C@H]2CCO[C@@H]2c2cnn(C)c2)C(=O)C1Cc1ccccc1 (some centres undefined) | -2% | 0.4
3 | C=CCN1CCN(Cc2cnoc2-c2ccccc2)CC1 | 10% | -1.83
4 | C[C@H](NC(=O)c1ccccc1N1CCC(NC(=O)NC(C)(C)C)CC1)c1ccccc1 | 18% | -2.49
5 | Cc1cc(C)c(-n2cccn2)c(CN2C[C@H](N(C)C)C[C@H]2C(=O)O)c1 | -18% | 1.77
6 | CC(C)(C)C#C[C@@H]1N(c2ccccc2)N=C(c2ccccc2)N1C(C)(C)C | -3% | 0.5
7 | CC(C)CC[C@H](NCc1cccnc1N1CCOCC1)c1ccoc1 | 10% | -1.23
8 | O=c1oc2c(Cl)cc(NS(=O)(=O)c3ccc4ccccc4c3)cc2s1 | -33% | 4.38
9 | O=C(O)c1cccc(Cl)c1CN1C[C@H]2C[C@@H](O)CC[C@H]2C1 | 3% | -0.34
10 | COc1ccc(C(=O)Nc2nnc(CCCc3ccccc3)s2)c(OC)c1 | -8% | 1.5
11 | O=C(NCC1CCCN1CCc1ccccc1)NC1CC2CCC1O2 (centres undefined) | 3% | -0.3
12 | CCc1nnc(-c2c(C)c(S(=O)(=O)NCc3cccc(Cl)c3)c(C)n2CC)o1 | -13% | 1.61
13 | CCn1c(COCc2ccccc2)nnc1N1CC(=O)N(C)[C@@H](C)C1 | -6% | 1.12
14 | Cc1ccc(C)c([C@@H](O)CN(CC(=O)NC2CC2)C2CC2)c1 | -6% | 0.88
15 | Cc1ccc(C(=O)N2CCC[C@]3(CCC(=O)N(C4CCCC4)C3)C2)cc1O | 1% | -0.2
16 | CN(Cc1ccccc1)C(=O)Cc1noc([C@H]2CCc3cnn(C)c3C2)n1 | -8% | 0.88
17 | CC(C)c1nnc(COCc2ncc[nH]2)s1 | 11% | -1.41
18 | C[C@]1(C#N)CCCN(C(=O)[C@H]2CC[C@@H](O)CC2)C1 | -4% | 0.73
19 | COc1cc2ccncc2cc1OC(=O)c1scnc1C | -5% | 0.77
20 | OCCn1nc([C@H](O)c2ccccc2)nc1-c1cn2ccccc2n1 | -5% | 0.58
21 | COC(C)(C)C[C@H](C)Nc1nc(C)cc(C#N)n1 | -8% | 0.64

Row | SMILES | % Inhibition | Z score
22 | CC(C)(O)CNC(=O)C(=O)Nc1cc(F)c(F)c(F)c1 | -7% | 0.85
23 | CN(C(=O)COc1cccc2c1CCCC2)C1CCCCC1O (centres undefined) | -11% | 1.28
24 | Cc1cc(-c2nc(C3CC3)no2)c(C)n1CC(=O)NCc1ccccc1Cl | 0% | 0.07
25 | CCn1ccnc1C(C)N1C(=O)C2CC3CCCCC3N2C1=O (centres undefined) | -4% | 0.61
26 | Cn1nc([C@@H]2CCCN2S(=O)(=O)Cc2ccccc2F)n(Cc2ccccc2)c1=O | -8% | 1.01
27 | COc1ccc([C@H](CN=C(N)N(C)C2CC2)N2CCCCC2)cc1 | -10% | 1.8
28 | O=C(CNc1cccc(C(F)(F)F)c1)N1CCC[C@H]1c1nc2ccccc2s1 | 9% | -0.95
29 | COc1cccc(C2=CCN(C(=O)Nc3cccnc3OC)C2)c1 | 2% | -0.31
30 | O=C(CCN1CCCCC1)N1CCC[C@H]1c1nnc(-c2ccccc2)[nH]1 | 0% | 0.04
31 | Cc1ccc(NC(=O)Cc2c(C)nc3nc(-c4cccnc4)nn3c2C)cc1C | 3% | -0.44
32 | Cc1noc2ncnc(N3CCC[C@H](C(=O)NCCCN(C)c4ccccc4)C3)c12 | 2% | -0.24
33 | CCc1ccc([C@@H]2CN(C(=O)c3ccc4cc[nH]c4n3)CCO2)cc1 | -3% | 0.57
34 | CCOc1cccc(CCNS(=O)(=O)CCC2CCOCC2)n1 | -2% | 0.41
35 | FC(F)Oc1ccccc1CN1CCCC12CCN(c1ncccn1)CC2 | 3% | -0.46
36 | CCc1nc(C)c(CNC(=O)c2cc(C(C)=O)n[nH]2)s1 | -8% | 1.29
37 | CC(=O)N[C@H]1CCN(Cc2cnc3c(-c4ccccc4)cnn3c2)C1 | 4% | -0.51
38 | Cc1ccc(NC(=O)N2CCN(C(=O)C(=O)N3CCCC3)CC2)c(Cl)c1 | 6% | -1
39 | CC1CCCC(OCC(=O)NC(C)CN2CCOC2=O)C1 (centres undefined) | -3% | 0.22
40 | CN1C(=O)CN(C(=O)[C@@H](c2ccccc2)C2CC2)c2ccccc21 | -1% | 0.13
41 | O=C(NC[C@H]1CCN1C1CCOCC1)c1cc(C2CCCCC2)n[nH]1 | 3% | -0.55
42 | Cc1cccn(CC2CC(F)(F)C2)c1=O | -3% | 0.37
